{"source": "PubChem BioAssay AID540267", "about": "(National Center for Advancing Translational Sciences (NCATS), 2011)", "note": "About 530 (0.16%) of roughly 340,000 compounds were called active. Inconclusive results, whose numbers are uncertain, are shown with a selection of clear calls. Rule as the data show it: active = activity change below about -80%; inconclusive = between about -30% and that limit; inactive = weaker than that. % is scaled to controls: 0 for no effect and ±100 for the full control effect.", "data": [{"assay": "Small Molecules that selectively kill Giardia lamblia: qHTS;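 also: parasites exposed to compound for two days anaerobically before the ATP read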", "conditions": "Giardia lamblia trophozoite viability; at 7.66 µM; active compounds read low", "how_it_was_run": "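ATP-content bioluminescence gauges trophozoite survival. Cells (100/well) receive compound and incubate anaerobically for 48 hrs at 37 deg C; detection reagent follows for 15-30 min at room temperature.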", "values": [{"smiles": "C=CC(COCc1ccccc1)N(Cc1ccccc1)S(=O)(=O)c1ccccc1Br", "note": "(configuration not stated)", "activity change": "inconclusive: -32.8% [inhibitor]"}, {"smiles": "COc1cc(C(=O)/C=C/c2cccnc2)c([N+](=O)[O-])cc1OC", "activity change": "active: -90%"}, {"smiles": "O=C(COc1ccc(F)cc1)N/N=C/c1cccc2cccnc12", "activity change": "inconclusive: -33.9% [inhibitor]"}, {"smiles": "COC(=O)C1=C[C@@H](C(=O)OC)[C@@H]2C3=C(C(=O)C2(C)C)[C@H](c2ccccc2)[C@@H]2C(=O)N(c4ccccc4)C(=O)[C@@H]2[C@@H]3C1", "activity change": "inconclusive: -32.9% [inhibitor]"}, {"smiles": "CSc1nc(SC(C)C(=O)O)c2c3c(sc2n1)COC(C)(C)C3", "note": "(configuration not stated)", "activity change": "inconclusive: -30.2% [inhibitor]"}, {"smiles": "c1ccc(CN2CCN(CCCNc3ccc4nnc(-c5ccccc5)n4n3)CC2)cc1", "activity change": "inactive: -2.9%"}, {"smiles": "Cc1cnc([N+](=O)[O-])n1CCOC(=O)NC(=O)c1cccc(F)c1", "activity change": "inconclusive: -79.8% [inhibitor]"}, {"smiles": "CCN1C=CC(=C2C(=O)c3ccccc3C2=O)C=C1", "activity change": "active: -94.1%"}, {"smiles": "O=C(NC(=S)Nc1ccc2oc(-c3cccnc3)nc2c1)c1cccc(Cl)c1", "activity change": "inconclusive: -33.5% [inhibitor]"}, {"smiles": "COC(=O)CC1(C(=O)OC)Oc2ccccc2C(=O)N1c1ccc(F)cc1F", "note": "(configuration not stated)", "activity change": "inactive: 4.49%"}, {"smiles": "O=C(NC1=NC2CCCCC2N1)c1ccccc1", "note": "(configuration not stated)", "activity change": "inconclusive: -34.2% [inhibitor]"}, {"smiles": "O=C(Nc1ccccc1)N1CCCN(c2nccc(C(F)(F)F)n2)CC1", "activity change": "inactive: 6.99%"}, {"smiles": "Cc1ccc(NC(=O)CCC(=O)N/N=C/c2cccs2)cc1", "activity change": "inactive: -6.96%"}, {"smiles": "O=C(Cc1ccc([N+](=O)[O-])cc1)N/N=C/c1ccc([N+](=O)[O-])o1", "activity change": "active: -88.9%"}, {"smiles": "COCCNC(=O)C(c1cccs1)N(C(=O)Cn1nnc2ccccc21)c1ccccc1", "note": "(configuration not stated)", "activity change": "inactive: -16.4%"}, {"smiles": "O=C(Nc1nnc(C23CC4CC(CC(C4)C2)C3)s1)c1ccco1", "activity change": "inconclusive: -45.8% [inhibitor]"}, {"smiles": "CC(NC(=O)c1ccc(NC(=O)CC2SC(N3CCCC3)=NC2=O)cc1)c1ccc(S(N)(=O)=O)cc1", "note": "(configuration not stated)", "activity change": "inconclusive: -44.3% [inhibitor]"}, {"smiles": "CN(C)c1ccc(N=Nc2ccc(C(=O)O)cc2)cc1", "activity change": "inconclusive: -73.6% [inhibitor]"}, {"smiles": "Cc1ccc(S(=O)(=O)NNC(=O)c2c(O)c3ccccc3[nH]c2=O)cc1", "activity change": "inactive: 46.8%"}, {"smiles": "O=S(=O)(NC1CCCCCC1)c1cccc(Cl)c1", "activity change": "inactive: 20.7%"}, {"smiles": "Clc1ccc(CSc2nnc(-c3ccccn3)n2Cc2ccco2)c(Cl)c1", "activity change": "inactive: -6.89%"}, {"smiles": "COc1ccccc1C(CNC(=O)c1ccc(S(=O)(=O)N2CCCCC2)cc1)N(C)C", "note": "(configuration not stated)", "activity change": "inconclusive: -32.1% [inhibitor]"}, {"smiles": "COc1ccc2oc(C(=O)Nc3nc4ccccc4[nH]3)c(C)c2c1", "activity change": "inactive: -4.86%"}, {"smiles": "O=C(NN1C(=O)/C(=C\\c2ccc(O)c([N+](=O)[O-])c2)SC1=S)c1ccccc1Cl", "activity change": "inconclusive: -70.8% [inhibitor]"}, {"smiles": "CCn1cnc2c([N+](=O)[O-])c(NS(=O)(=O)c3ccc(C)cc3)ccc21", "activity change": "active: -88.3%"}, {"smiles": "COc1ccc2c(c1OC)C(=O)N(c1cccc(C)c1)C2", "activity change": "inconclusive: -51.9% [inhibitor]"}, {"smiles": "CCN(Cc1ccc2c(c1)OCO2)C(=O)CSc1nc(C)nc2sc(C)c(C)c12", "activity change": "inactive: -6.59%"}, {"smiles": "CC(=O)O[C@H]1C(=O)[C@@]2(C)[C@H]([C@H](OC(=O)c3ccccc3)[C@]3(O)C[C@H](OC(=O)[C@H](O)C(NC(=O)c4ccccc4)c4ccccc4)C(C)=C1C3(C)C)[C@]1(OC(C)=O)CO[C@@H]1C[C@@H]2O", "note": "(some centres not stated)", "activity change": "inconclusive: -32.8% [inhibitor]"}, {"smiles": "CCN1C(=O)C(c2ccc(O)cc2)(c2ccc(O)cc2)c2ccccc21", "activity change": "inactive: -4.4%"}, {"smiles": "CCOC(=O)CNC(=O)N1CCCC(C(=O)c2ccc3c(c2)OCO3)C1", "note": "(configuration not stated)", "activity change": "inconclusive: -41.5% [inhibitor]"}, {"smiles": "COC(=O)CN1CCN(C(=O)c2ccc(F)cc2)c2ccccc2C1", "activity change": "inactive: 4.26%"}, {"smiles": "CC1=NN(C(=O)Cn2ccc([N+](=O)[O-])n2)C(O)(C(F)(F)F)C1", "note": "(configuration not stated)", "activity change": "inconclusive: -30.6% [inhibitor]"}, {"smiles": "O=C(Nc1ccc2oc(-c3ccncc3)nc2c1)c1ccc([N+](=O)[O-])o1", "activity change": "active: -80.1%"}, {"smiles": "COC(=O)c1ccsc1NC(=O)c1ccc(Cl)s1", "activity change": "inconclusive: -36.8% [inhibitor]"}, {"smiles": "C=CCOc1cccc(C2/C(=C(\\O)c3ccc4c(c3)OCCO4)C(=O)C(=O)N2Cc2cccnc2)c1", "note": "(configuration not stated)", "activity change": "inconclusive: -31.6% [inhibitor]"}, {"smiles": "CCN(CC(=O)Nc1ccc2c(c1)OCCO2)CC(=O)Nc1ccccc1C(F)(F)F", "activity change": "inactive: -19.2%"}, {"smiles": "COc1ccc(-c2cc3ncc(-c4ccccc4)c(N)n3n2)cc1", "activity change": "inconclusive: -31.5% [inhibitor]"}, {"smiles": "CC(C)N(C(=O)[C@H]1C[C@H](CC(=O)NCC23CC4CC(CC(C4)C2)C3)C(=O)N2CCc3c([nH]c4cc(CCC(=O)N(C)C)ccc34)[C@]12C)C(C)C", "activity change": "inactive: -6.87%"}, {"smiles": "CCOC(=O)c1sc(NC(=O)Nc2ccccc2)cc1C", "activity change": "inconclusive: -30.7% [inhibitor]"}, {"smiles": "CC(=O)N1C[C@H](O)C[C@H]1C(=O)O", "activity change": "inconclusive: -34.1% [inhibitor]"}, {"smiles": "COCCN(C(=O)CSc1nnc(-c2ccncc2)n1C)c1c(N)n(CC(C)C)c(=O)[nH]c1=O", "activity change": "inconclusive: -31.6% [inhibitor]"}, {"smiles": "COc1ccc2nc(C)cc(SCC(=O)N/N=C/c3ccccc3)c2c1", "activity change": "inconclusive: -40.4% [inhibitor]"}, {"smiles": "Cc1ncc([N+](=O)[O-])n1CCOC(=O)NC(Nc1ccc(F)cc1)C(Cl)(Cl)Cl", "note": "(configuration not stated)", "activity change": "inconclusive: -74.3% [inhibitor]"}, {"smiles": "Cc1noc(C)c1CSCC(=O)Nc1nc(-c2ccc(F)c(F)c2)cs1", "activity change": "inconclusive: -43.2% [inhibitor]"}, {"smiles": "NC(=S)Nc1cccc2[nH]ccc12", "activity change": "inactive: 18.4%"}, {"smiles": "Cc1cccc(NC(=O)c2nc[nH]c2C(=O)Nc2ccccc2[N+](=O)[O-])c1", "activity change": "inconclusive: -42.2% [inhibitor]"}, {"smiles": "Cc1cc(CN(C)C)c(O)c(C2(C)CCCCC2)c1", "activity change": "inactive: -3.48%"}]}]}
